Experimental data from publication PMC4336329 (PLoS ONE, 2015).
Screen size: about 310,000 compounds; about 2,200 (0.71%) showed an effect of 50% or more. The effect is printed as a negative number. Some of the results follow.

These compounds were tested against human ether-à-go-go-related gene (hERG) potassium channel (human, UniProt Q12809) (assay: primary screen, population patch clamp on CHO cells stably expressing hERG).
Chain of human ether-à-go-go-related gene (hERG) potassium channel (Q12809 whole entry, looked up): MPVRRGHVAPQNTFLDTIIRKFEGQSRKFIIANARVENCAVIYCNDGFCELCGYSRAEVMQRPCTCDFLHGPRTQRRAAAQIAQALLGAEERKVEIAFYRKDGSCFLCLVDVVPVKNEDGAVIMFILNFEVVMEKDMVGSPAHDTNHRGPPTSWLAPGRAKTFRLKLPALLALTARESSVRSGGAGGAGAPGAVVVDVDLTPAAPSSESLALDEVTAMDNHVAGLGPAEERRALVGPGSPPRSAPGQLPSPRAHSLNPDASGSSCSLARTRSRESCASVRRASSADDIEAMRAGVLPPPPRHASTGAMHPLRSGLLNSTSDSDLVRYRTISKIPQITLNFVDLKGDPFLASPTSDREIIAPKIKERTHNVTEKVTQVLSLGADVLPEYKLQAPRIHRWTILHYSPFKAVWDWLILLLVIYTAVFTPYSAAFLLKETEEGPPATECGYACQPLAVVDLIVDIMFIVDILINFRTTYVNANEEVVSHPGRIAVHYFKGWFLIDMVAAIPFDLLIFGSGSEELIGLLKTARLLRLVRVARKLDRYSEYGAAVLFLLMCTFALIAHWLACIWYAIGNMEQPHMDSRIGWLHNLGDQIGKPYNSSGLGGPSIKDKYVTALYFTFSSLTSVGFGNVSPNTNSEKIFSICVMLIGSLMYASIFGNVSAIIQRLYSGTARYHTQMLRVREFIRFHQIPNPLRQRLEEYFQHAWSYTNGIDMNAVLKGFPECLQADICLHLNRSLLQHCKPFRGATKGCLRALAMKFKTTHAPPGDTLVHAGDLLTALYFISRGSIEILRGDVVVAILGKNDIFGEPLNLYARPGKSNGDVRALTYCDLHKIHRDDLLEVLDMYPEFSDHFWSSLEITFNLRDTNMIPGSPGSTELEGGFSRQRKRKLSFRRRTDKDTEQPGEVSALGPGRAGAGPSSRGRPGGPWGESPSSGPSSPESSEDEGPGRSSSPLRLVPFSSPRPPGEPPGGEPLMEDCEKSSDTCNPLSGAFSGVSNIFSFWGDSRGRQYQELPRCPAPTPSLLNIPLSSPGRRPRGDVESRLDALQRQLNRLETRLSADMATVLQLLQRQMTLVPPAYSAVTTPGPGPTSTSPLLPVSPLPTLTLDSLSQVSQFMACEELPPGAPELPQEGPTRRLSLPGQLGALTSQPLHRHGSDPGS

Structure (SMILES) | hERG current change (%, negative = inhibition) at 1uM [%]
Cc1ccc2c(c1)[nH]c1c(=O)n(Cc3ccccn3)cnc12 | 15.1
NC(N)=N/N=C/c1ccc(Cl)c(Cl)c1 | 1.47
COc1cc(/C=N/Nc2ccc(Cl)c(C(=O)O)c2)ccc1OC(=O)c1ccccc1F | 5.98
COCCCn1c(=O)c2sccc2n2c(CCCC(=O)NCc3ccccc3)nnc12 | 12.7
Cn1c(C(=O)N2CCCC(C(=O)NCCCSC3CCCCC3)C2)cc2sccc21 (stereo not shown) | -2.93
O=C(CNC1CCCCC1)N1CCC2(CC1)OCCO2.O=C(O)C(=O)O | 11.7
O=C(COc1ccc(F)cc1)Nc1ccc(S(=O)(=O)Nc2ncccn2)cc1 | -1.59
Cc1nc(NC(C)c2ccccc2)c2c3c(sc2n1)CCC3 (stereo not shown) | -16.3
CCOc1ccc(CN2C(=O)c3ccccc3C2=O)cc1C(=O)Nc1nnc(SCC)s1 | 11
C=CCn1c(SCc2csc(C)n2)nc2sc3c(c2c1=O)CCCCC3 | -11.8
O=C(NCC(c1ccco1)N1CCc2ccccc21)C(=O)Nc1ccccc1F (stereo not shown) | -20.4
Cc1ccc(S(=O)(=O)N2CCN(C(=O)Cc3ccsc3)CC2)c(C)c1 | -10.3
C=CCOc1ccc(-c2nc3c(c(=O)[nH]c(=O)n3CCCC)n2C)cc1Br | -8.52
CCOc1ccc(CCNC(=O)c2ccc(CS(=O)Cc3ccccc3Cl)o2)cc1 (stereo not shown) | 4.72
O=C(COC(=O)c1cnccn1)Nc1c(Cl)cc(Cl)cc1Cl | 10.1
COc1ccc(N2CCN(C(=O)Cc3ccc(-n4c(=O)[nH]c5ccccc5c4=O)cc3)CC2)cc1 | 7.1
NS(=O)(=O)c1ccc(NS(=O)(=O)c2ccc(NC(=O)c3ccc(-c4ccccc4)cc3)cc2)cc1 | 7.89
O=C(NC1CC2CCCC(C1)N2S(=O)(=O)c1ccccc1)c1ccco1 (stereo not shown) | 0.747
O=C(COc1cc(F)ccc1[N+](=O)[O-])Nc1cccc(Br)c1 | 12.9
CCCNC(=O)Cc1c(C)n(C(=O)c2ccc(Cl)cc2)c2ccc(OC)cc12 | 18.6
O=c1cc(O)c2sc(Nc3ccc(Cl)c(F)c3)nc2[nH]1 | 16.3
COc1cccc(CC2(CO)CCCN(CC3=Cc4cc(Cl)ccc4OC3)C2)c1 (stereo not shown) | 6.49

Structure (SMILES) | hERG current change (%, negative = inhibition) at 1uM [%]
O=C(NCc1cccs1)c1cc(S(=O)(=O)N2CCOCC2)c(Cl)cc1Cl | -78.4
Nc1nonc1-n1nnc(C(=O)N/N=C/c2cccc(F)c2)c1-c1ccc2c(c1)OCO2 | -6.53
CC1(C)C2CC=C(/C=N/n3cnnc3)C1C2 (stereo not shown) | -3.24
N#CC1=C(N)Oc2cc(N)ccc2C1c1ccc(Cl)cc1 (stereo not shown) | 14.8
O=[N+]([O-])c1ccc2c(c1Nc1ccccc1)=NC1(CCCCC1)N=2 | 11.8
CNC[C@H](O)c1cccc(O)c1.Cl | 14.7
Cn1c(=O)c2c(ncn2CC(=O)N/N=C/C=C/c2ccccc2[N+](=O)[O-])n(C)c1=O | 9.68
CN(C)C1(CNCC(O)c2ccccc2)CCCCC1.O=C(O)C(=O)O (stereo not shown) | 11.3
CCOC(=O)C(C)Sc1ncc(-c2ccc(Cl)cc2)cn1 (stereo not shown) | -10.5
CC(=O)N/C(=C\c1ccccc1)C(=O)OC/C=C/c1ccccc1 | 10.1
Nc1nc2nccc(-c3ccc(Cl)cc3)n2n1 | 6
CCC(C)NC(=O)COC(=O)c1oc2ccccc2c1CSc1ccc(Cl)cc1 (stereo not shown) | 10.1
CN1C(=O)c2ccccc2N(C)C1c1ccc(F)cc1 (stereo not shown) | 13.1
CC(C)CCN1C(=O)c2ccc(C(=O)Nc3ccccc3C(=O)O)cc2C1=O | 6.59
CSc1sc(C#N)c2c1/C(=N\O)CCC2 | 11.9
COc1cc(/C=C/C(=O)c2ccc3c(c2)OCO3)cc(OC)c1OC | 7.05
Cc1cc(C)cc(OCC(=O)NC2=NCCS2)c1 | 5.88
Cc1ccc(-c2ccnc(-c3ccc(O)cc3)n2)cc1 | 17.2
Cc1ccc(-c2noc(CN(C)C(=O)Nc3ccc(F)cc3)n2)cc1 | 17.8
CCN(CC)CCOCCOC(=O)C(CC)(CC)c1ccccc1 | 6.15
C=CCOC(=O)C1=C[C@@H](c2ccccc2)[C@H](CCCO)[C@@H](OCC)O1 | 9.37
